From the supplement of paper PMC12632987 come the findings set out here.

The full ranking holds about 4,500 sequences; the median of “median log2 fold change of GCK-ALFA target abundance (FLAG IP / Myc IP barcode read proportion)” is about 0.078, and the lowest 2% start at about -0.6. The list shows a part of the results.

B1: GBRAP_43_5775 (protein)
chain: SKELVEGALDTAKLMAENPEIPDEQKVKAIQAAFDLAADEGYVDEELVEEVIDAANKSLSAEALEKIAEHLKELAKKYPEFKEVFEKARKKVEEAIKKKK
B2: GBRAP_160_4156 (protein)
chain: SEELEKLIKEIKEIAEESIKLMEGETSEEAKTIAKVAFGDILLEVEENPAVSEETLEEIGKVADEAEAYLDANPDLTVEEVQKILKETAKKVIEILEKEK
B3: GBRAP_95_7051 (protein)
chain: EDDQLALESTFEVLETYLDLGDEEAARRAAREAVELLKELGWDAVPDDISLESAELLVREAAEHLSPEDVEALTEALVAKAKTEEDKERIRAVAEEALAA
B4: GBRAP_83_6900 (protein)
chain: KEKIVVATTADHIDEAVDAAIDLHKEEGYEVELEVLATPEDFEKVKEGVERLAKAGLDIEVTIYLKGATKEEAEKLKKELEAIAKKHGANIKVEVILEEP
B5: GBRAP_53_6400 (protein)
chain: NKEKIEKLKKEVLELAKKATEADEEERKKLVKEIGKAFKELVKAGAPEEELTELAREVAKLLKEAGAPDSDLVELAKTFAELGLEEATAEVAEEAVEDLE
B6: GBRAP_117_2587 (protein)
chain: DPLRKEALEKVEELAKEVKEALEKEKTLSEEEKKELREKLLEKTEKLLKELREKLSEEEVDEIIEEVLAKLDAETYFRFESLVEEAEERIREEEEKEKEE
B7: GBRAP_74_6512 (protein)
chain: MEELLAKLKEAAEAKDVDKLVALALEIAETGDKETIEKAAEIVVAFVEANLDTLTPEELEKLSDALATLADKLMELGGDSEVVNRVAETAVALEKKLLAL
B8: GBRAP_160_4496 (protein)
chain: MEKEEKAIKEARELVELALEAILEEEGEGRRQIARAFAGDIALTLLELGVVSEEQEEEVLKLAEEMLEKVVEAAEKGEEEAKKAAEELKKKLEEKIKEFA
B9: GBRAP_160_4858 (protein)
chain: SEKLERALKILEEARDEALDLIDEAPGSQHAAFARAEADDALLELEEEGLVNDELEDELAAIIDELAARLEAAADASKEEHKAIVEEAYDRMMEAVRRLS
B10: GBRAP_186_5371 (protein)
chain: EEEAEKEIEEFIDEAAKKGYVISGVLEVKEFTEEAKKKIFDELEALAEFSAEFGYKGALIIKSTVSEEEFEELKKFVEEKRDELSKETGAEVEVKIVHVK
B11: GBRAP_11_2814 (protein)
chain: MKEEEKKAIEEIKKARELAKKLIEKEPGNEELLKELLKEAEKALELVKKHLSEAHKKDAEVALELVKEAAEDPENRLEYVKNARAAFDTLLANIEEELEE
B12: GBRAP_160_4371 (protein)
chain: KEALKKLAKEIEELKKEFLEEAKDLTPAEAVKLALGYLAEVAALVWENEAVSEEVEDKIFEIIDDAEARLRANADAPVEEIVAIATEAFDKIIELVKEEI
B13: GBRAP_128_3239 (protein)
chain: MDPEVRAEAERLIETIVTGTPEEAREATARLVELMATVDLEEAEEFAEMLKEALEKLTAEKLDVVADTLRENRGKLDPEKATLANDVEIEALNLAEEKEE
B14: GBRAP_184_5106 (protein)
chain: RVLEAVVEAETAEEAVAQLRAAVAEAAAAGAELVVLLDGKGLSTEELVEVIRAAGAAARAAGLPRVVIGIREPVDEEDLDRLLKAADEAGIQLVVALEEE
B15: GBRAP_14_3884 (protein)
chain: SEELKALYERNLAEFKAALARLRAAGLEAEAAAIEAELKAALAKAKAAGDLAAAAKAVGAAAARAEAAVLLHVEGVSEEEARAYERTEIANTEYEVDELV
B16: GBRAP_160_4608 (protein)
chain: MEKKKKFIEDVNKEFDETIKMIEGETIEQRANIVDVTIGQIIIEADELGVVSDESLDKIDAIRDETVAKILANPDLTDEEIKALINEARKKIIAIIEEDA
B17: GBRAP_11_2649 (protein)
chain: SREVLLEAARLAEELARTLARLIEEGVDNEELRARARELLERLRELAERHLPEAIRRDVEVAEELWEEFLADPANAEEYARQLLAAVRVLAGNLLLLADE
B18: GBRAP_26_5463 (protein)
chain: MDEAFRAALDAVDAAAATLPNPNAAAAVTAEAATVLEELEEAIEAGEDIAAAVAAARDELLAAARAIGEEEGLPAATIAAMEATLTAIFDALEAALKAAA
B19: GBRAP_128_3589 (protein)
chain: SVEEVREWTRAQLEAMKTADAAERRAIAEALADRFLTLTPEEREAMAATIEELLPELTAEQLDILADAFRAARPRADPETANLLADIEVAALNEAEEKEE

Chain of GABARAP, O95166 (O95166 whole entry, the tested form may be a part): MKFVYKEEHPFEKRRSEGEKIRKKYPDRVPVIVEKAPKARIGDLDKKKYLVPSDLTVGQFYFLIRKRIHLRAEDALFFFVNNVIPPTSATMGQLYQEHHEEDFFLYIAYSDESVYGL

This experiment has as its target GABARAP, O95166. Description: median log2 fold change of GCK-ALFA target abundance (FLAG IP / Myc IP barcode read proportion) (log2 ratio); each designed protein is fused to an ALFA-tag nanobody in HEK293 cells to bring the named protein to FLAG-tagged glucokinase (GCK); Myc marks an untargeted standard; higher = target protein stabilised (more abundant). The settings on record: target protein: 3xFLAG-MCP-GCK-ALFA reporter; HEK293 landing pad (RPLP). An outline of the steps:
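An ALFA-nanobody-fused binder library was recombined into HEK293 landing-pad cells and induced with 2 μg mL^−1 doxycycline. Cells were transfected with a plasmid expressing a FLAG-tagged target and a Myc-tagged standard. After 48 h, lysates underwent anti-FLAG and anti-Myc immunoprecipitation, and circular RNA barcodes were reverse transcribed, amplified and sequenced. Target abundance is the per-binder median log2 ratio of FLAG to Myc barcode read proportions. Barcodes needed ≥10^−7 proportion in both replicates, binders ≥3 barcodes per replicate, and a 10^−6 pseudocount was added; the two replicates were pooled.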
B1: the “median log2 fold change” value was 0.34.
As for B2, the “median log2 fold change” value was -0.303.
As for B3, the figure is 0.171; as for B4, 0.14.
As for B5, the figure is 0.294.
As for B6, the figure is 0.216; as for B7, 0.23.
In the case of B8, the “median log2 fold change” value worked out at 0.245.
As for B9, the figure is -0.134.
On to B10, for which the “median log2 fold change” value was 0.163.
Regarding B11, the “median log2 fold change” value turned out to be 0.285.
As for B12, the figure is 0.0133; as for B13, 0.225.
For B14, the “median log2 fold change” value was 0.072.
As for B15, the “median log2 fold change” value was determined as 0.18.
Regarding B16, the “median log2 fold change” value came to 0.123.
As for B17, the figure is 0.289.
Regarding B18, the “median log2 fold change” value came out at 0.261.
B19: the “median log2 fold change” value was determined as 0.21.
